# Source: the supplement of paper PMC11417369
# Some of the results follow.
# Tested on: PfHDP1 homeodomain (GST-tagged)
# Assay: gcPBM binding intensity (ln(normalized median fluorescence intensity)); higher = stronger DNA binding
# Procedure, shortened: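 An Agilent 4 × 180k array carrying primer-extended double-stranded 36-bp intergenic genomic probes and negative controls received GST-tagged P. falciparum DNA-binding domains expressed in E. coli, about 25 μg on average, for 1 h. The binding buffer contained 1× PBS, 1% milk, 0.2 mg/ml BSA, 0.5% salmon testes DNA and 0.03% Triton X-100. Binding intensity is the top Masliner-normalised natural-log median intensity across replicate spots of either probe orientation, read after Alexa488 anti-GST antibody staining and a 488 nm scan.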
row,Sequence,gcPBM binding intensity (ln)
1,AAAAAAATTAAACACACACACACATATATATATATA [CACACA_site4718],9.13
2,ATATATATGTATATGTGTACTTATATTTGTCATTTT [XGTACX_site1317],6.25
3,TTTTTTTTTTATTTTGCACACTTCTAATTTAGTTGT [CACACA_site3429],10.7
4,AAAAAAGTAAAAAGTGCATGTAAAATATAAGTATCT [TGCATGCA_site55],7.29
5,GTTATTCTTAATTTTTGTACACATTTTTATATTATT [XGTACX_site7227],7.53
6,TAAAGGCAAACAAACACACACACATATATACATATA [CACACA_site2123],6.69
7,AAAAATTAACAAAAGGTGCAAACAAATAGTGGTTTT [GTGCAC_site9998],8.6
8,CCAATACTGTTTAAATGTACAAGTAGGAGGTTAATT [XGTACX_site7260],6.64
9,TCCTGCCTCTCTTTGGTGCGTTGTAACCCTCGAGGA,6.6
10,AAAATTTAATATAATGCACACATAAAAAAAAATTCA [CACACA_site8640],9.79
11,TAAATTATTTATAAAGCACACAAGAAAAAATAAAAT [CACACA_site2132],6.99
12,ATATTAATATACATATGTACATATATATATATATAT [XGTACX_site7425],9.18
13,TAAAGTGTAAAGAAGGTGCTCATTATTTATTTTTTT,6.26
14,TTTATATCGACTCTTCTTTATATAAGTTGTGATGTT [TGCATGCA_negctrl_site362],6.55
15,TTATACTTTTTTTCTTGGTGTAGAAAAAAAAGTTAG [CACACA_negctrl_site1207],6.29
16,ATATGATATATTTTATGTACATATAAAACATATATA [XGTACX_site4297],6.25
17,TTTATATTAGGTCTTGAACGATTTTCATCATTATTA [TGCATGCA_negctrl_site100],6.04
18,AAAAAAGAAACAAACACACATACATACAAACAAACA [CACACA_site142],7
19,AGTTTCCTTGAGAAAAGTACGTAATACTACATATAT [XGTACX_site818],6.16
20,AAATTGTAGAAGCGTATTTCTCGAACTGGATGAATA [CACACA_negctrl_site1373],6.64
21,AATTAATGGAAACAAGTCAAATGATCTTTATGCATA [TGCATGCA_negctrl_site540],6.43
22,AATTCCTATAATGAGAGTACGCATTAGAACAGTAGG [XGTACX_site5721],6.4

row,Sequence,gcPBM binding intensity (ln)
1,TTGATAAAAAAAAAAAAATAAAAAAAAAATAAAAAA [XGTACX_negctrl_site480],5.86
2,TTTAAAAGATAAAGACTGCACTTTAAGCACACAAAT [GTGCAC_site9752],6.95
3,AATAAATATATAAATACACACAAACATACAGATATA [CACACA_site6088],7.03
4,GAGATTTATTTATGTGCACACTAGAACAATTGGATC [CACACA_site2090],10.5
5,TTTTTTTTTTTTGTGCGTACATACCATTTTAATAAT [XGTACX_site2760],6.66
6,CTTTTTTCAAAACACACACACAAGAAAATATATATA [CACACA_site3109],7.26
7,AAGACATTTTTTAAGGTGCTTTGGAAAAAGGAGTAT [GTGCAC_site9816],6.58
8,TATTATATATCAAAATGTACATTAATTTGAGTAATT [XGTACX_site5434],6.37
9,GATGTGATGTATTTGGTATTTTTCGATGTTGGTAGG [CACACA_negctrl_site355],6.82
10,TTTTTGCTATTCTATTATATATATAATATATTTTAC [CACACA_negctrl_site262],7.02
11,TTACCTCTTTGAAATATACACACTAATCATATCAAC [CACACA_site8778],6.83
12,TGTTCAGTAGGGCACACACACAACAAAATAAAAAAA [CACACA_site378],6.86
13,TAAAAACGATTTTTTGCACACACATAATAAGCAGAA [CACACA_site3870],10.2
14,AAAAATGATATGAGTTGTACATAAGTAAGAATTATT [XGTACX_site7089],6.22
15,GGACAAGTTAAACGCACACAAATATATACCCCCATA [CACACA_site4996],7.91
16,TATAATAAAATATGTACACACATACACCCATATATA [CACACA_site4808],6.83
17,ACAAGTAATTAAGAGTGTACATAACTATAAATCCAA [XGTACX_site5215],6.38
18,TGTATGTATGTATTATTTGTTATTTTAATTTTTTTG [TGCATGCA_negctrl_site256],7.03
19,GATATGATGAGATTGATATTCATAAGAGGATTAATG [GTGCAC_negctrl_site515],6.24
20,ATTATAATTGCATATACACACAAAGGTTCATAACAA [CACACA_site7440],7.62
21,ACATATATAAAATAATGTACATTTTTAAGAATGCGT [XGTACX_site7654],6.5
22,ATGAGTTACATGGGAAAAATATATATATATATATAT [CACACA_negctrl_site579],9.38
